# According to the supplement of paper PMC8728848:
# The other results are listed elsewhere or left out.
# B1: rCNL (Clitocybe nebularis), B2ZRS9 (protein)
# chain: SITPGTYNITNVAYTNRLIDLTGSNPAENTLIIGHHLNKTPSGYGNQQWTLVQLPHTTIYTMQAVNPQSYVRVRDDNLVDGAALVGSQQPTPVSIESAGNSGQFRIKIPNLGLALTLPSDANSTPIVLGEVDETSTNQLWAFESVSAV
# How the values were obtained:
# Experiment in all cases: glycan array binding signal (z-score within array); higher = stronger binding
# Conditions in all cases: glycan notation: IUPAC condensed, linker removed
# [1] = target: Gal(b1-4)GlcNAc(b1-2)[Gal(b1-4)GlcNAc(b1-4)]Man(a1-3)[GlcNAc(b1-4)][Gal(b1-4)GlcNAc(b1-2)[Gal(b1-4)GlcNAc(b1-6)]Man(a1-6)]Man(b1-4)GlcNAc(b1-4)GlcNAc
# How it was run: (§1)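 The Consortium for Functional Glycomics database supplied 3228 glycan arrays, of which those lacking an available protein sequence were dropped. The binding signal, a within-array Z-score, was averaged across arrays of the same protein sequence and across linkers. Negative scores can be read as non-binding.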
# [2] = target: Gal(b1-4)GlcNAc(b1-2)[Gal(b1-4)GlcNAc(b1-6)]Man(a1-6)[Gal(b1-4)GlcNAc(b1-2)Man(a1-3)]Man(b1-4)GlcNAc(b1-4)GlcNAc
# How it was run: as §1
# [3] = target: Gal(b1-4)GlcNAc(b1-2)[Gal(b1-4)GlcNAc(b1-6)]Man(a1-6)[Gal(b1-4)GlcNAc(b1-2)Man(a1-3)]Man(b1-4)GlcNAc(b1-4)[Fuc(a1-6)]GlcNAc
# How it was run: as §1
# [4] = target: Gal(b1-4)GlcNAc(b1-2)[Gal(b1-4)GlcNAc(b1-6)]Man(a1-6)[GlcNAc(b1-4)][Gal(b1-4)GlcNAc(b1-2)Man(a1-3)]Man(b1-4)GlcNAc(b1-4)GlcNAc
# How it was run: as §1
# [5] = target: Gal(b1-4)GlcNAc(b1-2)[Gal(b1-4)GlcNAc(b1-6)]Man(a1-6)[GlcNAc(b1-4)][Gal(b1-4)GlcNAc(b1-2)[Gal(b1-4)GlcNAc(b1-4)]Man(a1-3)]Man(b1-4)GlcNAc(b1-4)[Fuc(a1-6)]GlcNAc
# How it was run: as §1
# [6] = target: Gal(b1-4)GlcNAc(b1-3)Gal(b1-3)GalNAc
# How it was run: as §1
# [7] = target: Gal(b1-4)GlcNAc(b1-3)Gal(b1-3)GlcNAc
# How it was run: as §1
# [8] = target: Gal(b1-4)GlcNAc(b1-3)Gal(b1-4)Glc
# How it was run: as §1
# [9] = target: Gal(b1-4)GlcNAc(b1-3)Gal(b1-4)GlcNAc
# How it was run: as §1
# [10] = target: Gal(b1-4)GlcNAc(b1-3)Gal(b1-4)GlcNAc(b1-2)Man(a1-3)[Gal(b1-4)GlcNAc(b1-3)Gal(b1-4)GlcNAc(b1-2)Man(a1-6)]Man(b1-4)GlcNAc(b1-4)GlcNAc
# How it was run: as §1
# [11] = target: Gal(b1-4)GlcNAc(b1-3)Gal(b1-4)GlcNAc(b1-2)Man(a1-3)[Gal(b1-4)GlcNAc(b1-3)Gal(b1-4)GlcNAc(b1-2)Man(a1-6)]Man(b1-4)GlcNAc(b1-4)[Fuc(a1-6)]GlcNAc
# How it was run: as §1
# [12] = target: Gal(b1-4)GlcNAc(b1-3)Gal(b1-4)GlcNAc(b1-2)[Gal(b1-4)GlcNAc(b1-3)Gal(b1-4)GlcNAc(b1-6)]Man(a1-6)[Gal(b1-4)GlcNAc(b1-3)Gal(b1-4)GlcNAc(b1-2)Man(a1-3)]Man(b1-4)GlcNAc(b1-4)GlcNAc
# How it was run: as §1
# [13] = target: Gal(b1-4)GlcNAc(b1-3)Gal(b1-4)GlcNAc(b1-2)[Gal(b1-4)GlcNAc(b1-3)Gal(b1-4)GlcNAc(b1-6)]Man(a1-6)[Gal(b1-4)GlcNAc(b1-3)Gal(b1-4)GlcNAc(b1-2)Man(a1-3)]Man(b1-4)GlcNAc(b1-4)[Fuc(a1-6)]GlcNAc
# How it was run: as §1
# [14] = target: Gal(b1-4)GlcNAc(b1-3)Gal(b1-4)GlcNAc(b1-3)Gal(b1-4)GlcNAc
# How it was run: as §1
# [15] = target: Gal(b1-4)GlcNAc(b1-3)Gal(b1-4)GlcNAc(b1-3)Gal(b1-4)GlcNAc(b1-2)Man(a1-3)[Gal(b1-4)GlcNAc(b1-3)Gal(b1-4)GlcNAc(b1-3)Gal(b1-4)GlcNAc(b1-2)Man(a1-6)]Man(b1-4)GlcNAc(b1-4)GlcNAc
# How it was run: as §1
# [16] = target: Gal(b1-4)GlcNAc(b1-3)Gal(b1-4)GlcNAc(b1-3)Gal(b1-4)GlcNAc(b1-2)Man(a1-3)[Gal(b1-4)GlcNAc(b1-3)Gal(b1-4)GlcNAc(b1-3)Gal(b1-4)GlcNAc(b1-2)Man(a1-6)]Man(b1-4)GlcNAc(b1-4)[Fuc(a1-6)]GlcNAc
# How it was run: as §1
# [17] = target: Gal(b1-4)GlcNAc(b1-3)Gal(b1-4)GlcNAc(b1-3)Gal(b1-4)GlcNAc(b1-2)[Gal(b1-4)GlcNAc(b1-3)Gal(b1-4)GlcNAc(b1-3)Gal(b1-4)GlcNAc(b1-6)]Man(a1-6)[Gal(b1-4)GlcNAc(b1-3)Gal(b1-4)GlcNAc(b1-3)Gal(b1-4)GlcNAc(b1-2)Man(a1-3)]Man(b1-4)GlcNAc(b1-4)[Fuc(a1-6)]GlcNAc
# How it was run: as §1
# [18] = target: Gal(b1-4)GlcNAc(b1-3)Gal(b1-4)GlcNAc(b1-3)Gal(b1-4)GlcNAc(b1-3)Gal(b1-4)GlcNAc(b1-2)Man(a1-3)[Gal(b1-4)GlcNAc(b1-3)Gal(b1-4)GlcNAc(b1-3)Gal(b1-4)GlcNAc(b1-3)Gal(b1-4)GlcNAc(b1-2)Man(a1-6)]Man(b1-4)GlcNAc(b1-4)GlcNAc
# How it was run: as §1
# [19] = target: Gal(b1-4)GlcNAc(b1-3)Gal(b1-4)GlcNAc(b1-3)Gal(b1-4)GlcNAc(b1-3)Gal(b1-4)GlcNAc(b1-2)Man(a1-3)[Gal(b1-4)GlcNAc(b1-3)Gal(b1-4)GlcNAc(b1-3)Gal(b1-4)GlcNAc(b1-3)Gal(b1-4)GlcNAc(b1-2)Man(a1-6)]Man(b1-4)GlcNAc(b1-4)[Fuc(a1-6)]GlcNAc
# How it was run: as §1
# [20] = target: Gal(b1-4)GlcNAc(b1-3)Gal(b1-4)GlcNAc(b1-3)Gal(b1-4)GlcNAc(b1-3)Gal(b1-4)GlcNAc(b1-2)[Gal(b1-4)GlcNAc(b1-3)Gal(b1-4)GlcNAc(b1-3)Gal(b1-4)GlcNAc(b1-3)Gal(b1-4)GlcNAc(b1-6)]Man(a1-6)[Gal(b1-4)GlcNAc(b1-3)Gal(b1-4)GlcNAc(b1-3)Gal(b1-4)GlcNAc(b1-3)Gal(b1-4)GlcNAc(b1-2)Man(a1-3)]Man(b1-4)GlcNAc(b1-4)[Fuc(a1-6)]GlcNAc
# How it was run: as §1
# [21] = target: Gal(b1-4)GlcNAc(b1-3)Gal(b1-4)GlcNAc(b1-3)Gal(b1-4)GlcNAc(b1-3)Gal(b1-4)GlcNAc(b1-3)Gal(b1-4)GlcNAc(b1-2)Man(a1-3)[Gal(b1-4)GlcNAc(b1-3)Gal(b1-4)GlcNAc(b1-3)Gal(b1-4)GlcNAc(b1-3)Gal(b1-4)GlcNAc(b1-3)Gal(b1-4)GlcNAc(b1-2)Man(a1-6)]Man(b1-4)GlcNAc(b1-4)GlcNAc
# How it was run: as §1
# [22] = target: Gal(b1-4)GlcNAc(b1-3)Gal(b1-4)GlcNAc(b1-3)Gal(b1-4)GlcNAc(b1-3)Gal(b1-4)GlcNAc(b1-3)Gal(b1-4)GlcNAc(b1-2)Man(a1-3)[Gal(b1-4)GlcNAc(b1-3)Gal(b1-4)GlcNAc(b1-3)Gal(b1-4)GlcNAc(b1-3)Gal(b1-4)GlcNAc(b1-3)Gal(b1-4)GlcNAc(b1-2)Man(a1-6)]Man(b1-4)GlcNAc(b1-4)[Fuc(a1-6)]GlcNAc
# How it was run: as §1
binder,measurement,setting,value
B1,glycan array binding signal (z-score),[1],-0.041
same,glycan array binding signal (z-score),[2],-0.148
same,glycan array binding signal (z-score),[3],-0.2
same,glycan array binding signal (z-score),[4],-0.157
same,glycan array binding signal (z-score),[5],-0.112
same,glycan array binding signal (z-score),[6],-0.207
same,glycan array binding signal (z-score),[7],-0.117
same,glycan array binding signal (z-score),[8],-0.059
same,glycan array binding signal (z-score),[9],0.049
same,glycan array binding signal (z-score),[10],0.025
same,glycan array binding signal (z-score),[11],-0.195
same,glycan array binding signal (z-score),[12],-0.209
same,glycan array binding signal (z-score),[13],-0.147
same,glycan array binding signal (z-score),[14],0.047
same,glycan array binding signal (z-score),[15],-0.018
same,glycan array binding signal (z-score),[16],-0.198
same,glycan array binding signal (z-score),[17],-0.161
same,glycan array binding signal (z-score),[18],-0.184
same,glycan array binding signal (z-score),[19],-0.186
same,glycan array binding signal (z-score),[20],-0.171
same,glycan array binding signal (z-score),[21],-0.198
same,glycan array binding signal (z-score),[22],-0.164
